{"source": "PubChem BioAssay (NCI)", "test_system": "NCI-H322M lung", "test": "DTP human tumour cell line panel, 48 h", "note": "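Interpolation was linear, between the two tested concentrations surrounding the appropriate level; five concentrations were tested over 48 hours in 96-well plates. GI50: concentration for 50% inhibition of growth. The concentration for full growth arrest is given as TGI.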", "data": [{"compound": "CCN(CC)c1ccc2c(c1)Oc1nc(N)c(C#N)c(N)c1C2Sc1ccc(C)cc1", "note": "(configuration not stated)", "values": [{"measurement": "GI50", "value": 1670, "unit": "nM"}, {"measurement": "TGI", "value": 3.04, "unit": "µM"}]}]}
